ChEMBL document CHEMBL4888484, “Replenishing the malaria drug discovery pipeline: Screening and hit evaluation of the MMV Hit Generation Library 1 (HGL1) against asexual blood stage Plasmodium falciparum ,using a nano luciferase reporter read-out” (2022)
Out of some 150,000 compounds screened, about 540 (0.36%) showed an effect of 50% or more. This is one part of the list.

system: Plasmodium falciparum; test: Primary screen in NF54 nanoGlo assay, in single point, at 2uM, 72h; a lower Z score goes with more inhibition; type: functional, Erythrocyte; details: timepoint 72 hour

SMILES | % Inhibition [%] | Z score
O=C(NCCCN1CCCCC1)C1CCN(Cc2nnc(-c3cccc(Cl)c3)o2)CC1 | 33 | -3.79
CCOc1ccc(NC(=O)c2cnc3c(c(C)nn3-c3ccc(C)cc3)c2O)cc1 | -12 | 1.58
O=C(Nc1nc(C(=O)NCCCN2CCOCC2)cs1)c1cccc(Cl)c1 | -6 | 1.01
Fc1ccccc1CN1CCC(CNc2nc(-c3ccccc3)no2)CC1 | -15 | 1.36
CCCc1cc(CN(C)Cc2ccc3c(ccn3C)c2)n[nH]1 | -6 | 0.7
CC(C)C(=O)NC[C@H]1CCCCC(=O)N1 | 3 | -0.6
CC1CN(C(C)C)CC1NS(=O)(=O)C1CCOC1 (configuration not stated) | -10 | 1.46
O=C(CCc1ccccc1)N1CC2(C[C@H](N3CCCC3)CO2)C1 | -8 | 0.88
CCC(Nc1nnnn1-c1ccccc1)C(=O)N1CCC(CNC)C1 (configuration not stated) | -5 | 0.68
Cn1ncnc1CCNC(=O)CCC(=O)N1CCCCCC1 | -11 | 1.75
O=C(CCC[C@@H]1[C@H]2CCCN3CCC[C@@H](CN1C(=O)c1ccccc1F)[C@@H]23)NCC1CC1 | -3 | 0.55
COc1ccc(C(=O)N2CC3CN(Cc4ccccc4)CC3C2)cc1 (configuration not stated) | 5 | -0.7
CC1CN(C(=O)Cc2noc3ccccc23)C(C)CO1 (configuration not stated) | -6 | 0.9
CC1(C2CCN(C(=O)C(=O)NC3CC3)CC2)OCCO1 | -5 | 1
COc1cc(-c2nc3cc(C)ccc3o2)cc2c1OCO2 | -11 | 2.03
COc1ncc(C#N)c(C)c1Br | -4 | 0.76
C=C1C2(C(=O)N3CCN(c4ccccc4)CC3)CCC(C2)C1(C)C (configuration not stated) | -17 | 2.02
O=C1CN(Cc2cn(C3CCN(C(=O)[C@@H]4CC=CCC4)CC3)nn2)CCN1 | 6 | -0.79
C[C@@H]1CN(c2nccnc2C#N)C[C@H]1CO | -1 | 0.1
O=C(N[C@@H]1CN(C(=O)c2ccccn2)CC[C@@H]1CO)c1ccccc1 | -8 | 1.03
Cc1cccc(-c2cc(Nc3ccc(Oc4ccccc4)cc3)nc(C)n2)c1 | 5 | -0.65
Cc1ccc(CCNC(=O)CCn2nc(-c3ccc(C)cc3)ccc2=O)cc1 | -14 | 2.2

SMILES | % Inhibition [%] | Z score
O=C(CN1CCCC1CC(O)c1ccccc1)NCc1ccco1 (configuration not stated) | -3 | 0.3
c1cn(CCCOc2ccc3c(c2)OCO3)nn1 | 37 | -5.39
Cc1cccc(C)c1Oc1ncccc1CNC(=O)[C@@H]1CCCCN1C | -11 | 1.26
COc1ccc(C(NC2CCN(C(=O)C(C)C)CC2)[C@H]2C[C@@H](O)C2)cn1 (some centres not stated) | 10 | -2.05
C[C@@H](Cc1ccsc1)N1CC2(CCNCC2)CCC1=O | 15 | -1.91
O=C(Nc1ccccc1OCc1ccccc1)N[C@@H]1CCCNC1 | -8 | 0.84
O=C1c2ccccc2N[C@H](c2cccnc2)N1Cc1ccc2c(c1)OCO2 | 8 | -1.24
Cc1cnc(CCNC(=O)CN2CCCCCC2)n1C1CC1 | -5 | 0.73
CCCn1nnnc1CN[C@@H](C)c1ccc(F)c(Cl)c1 | -5 | 0.7
C(=C\c1cc(/C=C/c2ccccc2)ncn1)/c1ccccc1 | -16 | 2.18
Cc1nc(C2CCCC2)sc1C(=O)Nc1ccc(N2CCNC(=O)C2)nc1 | -4 | 0.55
CC(C)(C)n1cnc(NC(=O)N2CC(O)(c3cccc(Br)c3)C2)n1 | -9 | 1.02
Cc1cc(=O)n(-c2nc(-c3ccc(Br)cc3)cs2)[nH]1 | -8 | 1.61
Cc1cccc2sc(OC3CN(S(=O)(=O)Cc4ccccc4)C3)nc12 | -1 | 0.08
Cc1nc(CNCc2c[nH]nc2C)cs1 | -7 | 1.01
Cn1nncc1C(=O)N1CCC[C@H](OCC2CC2)C1 | -3 | 0.4
Nc1nc2c(s1)CC1(CC2)OCCO1 | -11 | 0.96
Cc1nn(-c2ccccc2)c(N2CCC(C(=O)N3CCCCCC3)CC2)c1-n1c(C)ccc1C | 2 | -0.23
Cc1nc(C)c(Br)c(N2CC(n3cc(CO)nn3)C2)n1 | -13 | 2.02
Cc1ncc(C(=O)NC[C@H](C)Oc2cccnc2)c(O)n1 | -18 | 1.65
Cc1nn(C)cc1CN1CCc2n[nH]c(=O)n2CC1 | -9 | 0.81
CCCN1CCN(c2ccc(-c3nc(-c4ccccc4)no3)nn2)CC1 | -18 | 2.07

SMILES | % Inhibition [%] | Z score
CN(Cc1nccn1C)C(=O)c1occc1-c1ccc(F)cc1 | 5 | -0.73
CC(C)NC(=O)C1CN(C(=O)c2ccc3c(c2)OCO3)CC1c1cccc(C(F)(F)F)c1 (configuration not stated) | -7 | 0.81
CC(C)c1cccc(-c2nnc(C3CCOCC3)o2)n1 | -8 | 1
COCCCN(Cc1ccc(OC)c(OC)c1)C[C@H](O)COC(C)(C)C | -4 | 0.76
O=S(=O)(c1cccc2nsnc12)N1CC[C@@H]2COCCN(Cc3cccnc3)[C@@H]2C1 | -15 | 1.91
CCc1c(C(=O)Nc2ccc(-n3cncn3)nc2)cnn1-c1ccccc1 | -7 | 1.32
Cc1ccc(-c2c(N3CCCC3)n[nH]c2C2CC2)cc1 | 28 | -3.12
COc1ccc(CN2CCn3c(n[nH]c3=O)C2)cc1CN(C(C)C)C(C)C | -13 | 2.2
CC1CN(C(=O)NCc2ccc3c(c2)OCO3)C(C)CO1 (configuration not stated) | -16 | 3.1
NC(=O)CO[C@H]1CCOC[C@H]1NC(=O)c1ccc(Oc2ccccc2)o1 | 4 | -0.64
O=C(Nc1nc(-c2cccs2)c(-c2cccs2)s1)c1cccc(Cl)c1Cl | -1 | 0.22
Cc1nc(-c2ccc(C(F)(F)F)cc2)c(N)c(N2CCOCC2)n1 | -13 | 1.75
C1CCN2CC3CN(c4nc(C5CC5)no4)CC3C2C1 (configuration not stated) | -6 | 0.55
Cc1noc(C)c1S(=O)(=O)N[C@H]1CCOC[C@@H]1OCC1CC1 | -4 | 0.64
CC(=O)N(C[C@@H]1OC(c2ccccc2Cl)=NN1C(C)=O)c1ccc(Cl)cc1C | 10 | -1.34
CC[C@@H](C(=O)NCCc1cccs1)N(C)CC | -19 | 1.96
CCN(CCc1ccccc1)CC(=O)Nc1cc(S(N)(=O)=O)ccc1N(CC)CC | 7 | -1.01
CCn1ncc(CN2CCO[C@@H](Cc3ccccc3Cl)C2)c1C | 13 | -1.69
O=C(Nc1cc(C2CC2)n[nH]1)c1cc(-c2ccccn2)no1 | -16 | 3.11
COC[C@H](Cc1ccccc1)Nc1cccnc1 | -6 | 0.7
O=C(Nc1ccc(C(=O)O)cc1)N[C@H]1CCCN(Cc2cccc(O)c2)C1 | -7 | 0.89
Cn1ccc(=O)n1Cc1cccc(C(C)(C)C)c1 | -4 | 0.35

SMILES | % Inhibition [%] | Z score
CCN(Cc1nc2cc(OC)c(OC)cc2c(=O)[nH]1)C(=O)c1sc(-c2ccccc2)nc1C | -4 | 0.73
CC(C)CS(=O)(=O)C1CN(C(=O)Cc2noc3ccccc23)C1 | -12 | 1.5
O=S(=O)(Nc1cc(-c2nc[nH]n2)ccc1F)c1cncc(Cl)c1 | -1 | 0.14
COC[C@H](C)C1CCN(C(=O)c2nc3ccccc3[nH]2)CC1 | -10 | 1.47
CC(C)c1ccc2c(c1)CC[C@H]1[C@](C)(CNC(=O)c3n[nH]c4c3CCCC4)CCC[C@]21C | -8 | 0.98
COC[C@H]1[C@@H](NC(=O)c2cccnc2OC)[C@H]2CCO[C@H]21 | -1 | 0.12
O=C(NCCn1cnc(-c2ccccc2)cc1=O)c1cc(N2CCCC2)ncn1 | -16 | 2.68
O=C(CCc1ccccc1)N1CCc2n[nH]c(=O)n2CC1 | -4 | 0.47
COc1cccc([C@H]2C[C@@H]2C(=O)N(C)CC(=O)NC2CC2)c1 | -8 | 0.93
CCC(CC)Nc1ccncc1NC(=O)c1ccnc2ccnn12 | 0 | -0.05
CCCc1cnc(NCc2cnc3cnccn23)s1 | -7 | 1.27
CCc1ccc(CNC(=O)[C@H]2CCCN(c3cc(=O)n(C)c(=O)n3CC)C2)cc1 | -2 | 0.3
N#Cc1ccc(N2CC[S+]([O-])CC2)c(F)c1 | -10 | 1.26
CC1(C)CN(Cc2nnc(C3CC3)o2)CCN1Cc1ccccc1 | -3 | 0.43
CCCCNC(=O)c1nn[nH]c1-c1ccccc1O | 1 | -0.14
CCc1nc(C)nc(N2CCN(C[C@H](O)C(C)C)CC2)c1Cc1ccc(C)cc1 | -6 | 1.06
Cc1ocnc1-c1noc(CC(C)C)n1 | 7 | -0.79
COCc1noc(CN(C)Cc2noc(C3CC3)n2)n1 | -3 | 0.6
Cc1ccc(NC(=O)N2CC[C@H](N(CCN3CCCC3)S(=O)(=O)N(C)C)C2)cc1F | 35 | -3.95
CC(C)c1cc(C(=O)N2C[C@H](NS(=O)(=O)N(C)C)[C@@H](C(C)C)C2)no1 | -4 | 0.79
